Assay results from PubChem BioAssay AID1963576 (National Center for Advancing Translational Sciences (NCATS), 2024).
The campaign covered roughly 46,000 compounds. About 60 (0.1%) were called active. Inconclusive results (about 3%) are left out. The call rests on the fitted dose curve; in most records, active means well fitted inhibition curve with a large enough effect; inconclusive means small, poorly fitted or top-dose-only effect; inactive means no such curve, though single readings can be large or run the other way. This is one part of the list.

assay: Primary qHTS assay for Inhibitors of ovarian cancer metastasis using an organotypic tumor microenvironment (TME) model.; further: nearly all actives have a fitted effect of over 65% in size;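 on activity change, negative = inhibition: plate controls were DMSO wells for no effect and tomatine positive control wells for full effect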; conditions: SKOV3ip1-GFP adhesion/invasion on 3D omental model, fluorescence; series mostly up to 45.8 µM; activity change, negative = inhibition: at the top concentration
Method in brief: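 Adhesion/invasion was scored as fixed GFP-labeled SKOV3ip1 cell counts (488/509 nm), normalized to DMSO and tomatine controls. Cancer cells in serum-free medium, with four compound doses (0.36-46 umol/L), sat 2 hr at RT then 16 hr at 37 C on a 48 hr fibroblast/mesothelial/ECM culture.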

outcome, inactive:
COc1cc(NC(=O)CCN2CCN(CCO)CC2)cc(OC)c1
Cc1ccc(NC(=O)c2ccc(=O)n(CC(=O)Nc3ccccc3)n2)cc1
CCOC(=O)COc1ccc(-c2nnn(CC(=O)Nc3ccccc3)n2)cc1
Cc1ccc(C)c(NC(=O)C2CCN(S(=O)(=O)c3c(C)noc3/C=C/c3cccs3)CC2)c1
COc1cccc(CNC(=O)C2CCCN(S(=O)(=O)N(C)c3ccc(F)cc3)C2)c1OC (stereo unspecified)
COCCn1c(C)cc(O)c(C(c2ccccc2OC)N2CCN(c3ccccc3)CC2)c1=O (stereo unspecified)
COc1ccccc1/C=C/c1nc(C#N)c(NC2CCCCC2)o1
COc1ccc(Cl)cc1S(=O)(=O)Nc1ccc2[nH]c(=O)[nH]c2c1
Cc1ccc(N2CC(NC(=O)c3ccccc3C(F)(F)F)CC2=O)cc1C (stereo unspecified)
COc1ccc(/C=C/C(=O)Nc2sc3c(c2C(N)=O)CCC(C)C3)cc1OC (stereo unspecified)
CCOc1ccc(C2C(=O)N(C3CCCCC3)CC(=O)N2C2CCCC2)cc1OC (stereo unspecified)
COc1ccc(CNC(=O)CCC(=O)N2CC3CCCN3c3ccccc32)c(OC)c1 (stereo unspecified)
CNC(=O)c1c[nH]c2ccc(S(=O)(=O)Nc3cccc(Cl)c3C)cc2c1=O
COC(=O)c1cc(S(=O)(=O)NCC2CCN(Cc3ccc(C)cc3)CC2)c[nH]1

Activity change, negative = inhibition, inactive:
Cc1ccc(C)c(N2CCN(C(=O)c3cc(C)nc4c3c(C)nn4-c3ccccc3)CC2)c1 -5.49%
Cn1c(=O)c2sccc2n2c(CCCC(=O)Nc3ccc(Oc4ccccc4)cc3)nnc12 1.7%
COc1ccc(N2CCN(S(=O)(=O)c3ccc4c(c3)C(C(C)C)C(=O)N4)CC2)cc1 (stereo unspecified) -1.7%
Cc1nc2cc(-c3cccc(F)c3)nn2c(C)c1CCC(=O)NCCc1ccccc1 -1.32%
COc1ccc(F)c(F)c1C(=O)c1cnc(NC2CCN(S(C)(=O)=O)CC2)nc1N 48.5%
CCn1c(CNC(=O)c2ccc(OC)cc2)nnc1SCC(=O)Nc1cc(C)ccc1C -4.35%
Cn1c(/C(C#N)=C/c2ccccc2Br)nc2ccccc21 -7.61%
Cc1sc2c(c1C)c(=O)n(CCc1ccccc1)c(=O)n2Cc1ccc(C(C)(C)C)cc1 2.39%
COc1ccc(S(=O)(=O)N2Cc3ccccc3CC2C(=O)Nc2cc(Cl)ccc2Cl)cc1 (stereo unspecified) -1.06%
CCOCN(C(=O)Cn1c(COC)nc2ccccc21)c1c(C)cccc1CC -2.09%
COc1ccc(Cl)cc1NC(=O)CSc1nccn1-c1ccc(Cl)cc1 -1.63%
COc1ccccc1C(=O)NCc1nc2cccnc2n1Cc1ccc(F)cc1 -4.47%
CCc1c(C)c2ccc(O)c(CN3CCN(c4ccc(F)cc4)CC3)c2oc1=O 2.14%
CCc1cccc(NS(=O)(=O)c2ccc3c(c2)CC(C)N3C(=O)C2CC2)c1 (stereo unspecified) 9.19%
Cc1cccc(NC(=O)CSC2=Nc3ccccc3C3=NC(CC(=O)NCc4cccs4)C(=O)N23)c1 (stereo unspecified) -1.9%
COc1ccc(C(=O)NCCn2cc(SCc3ccc(C(F)(F)F)cc3)c3ccccc32)cc1OC 3.06%
COc1ccc(CNC(=O)CCCn2nc(C)n3c(cc4sccc43)c2=O)cc1 -2%
O=C(Nc1ccc2c(c1)CCCN2C(=O)c1cccs1)c1ccc(F)c(F)c1 -7.01%
COc1ccc(C(=O)c2cn(Cc3ccccc3F)c3cc4c(cc3c2=O)OCCO4)cc1OC -4.33%
CCOC(=O)c1cnc2ccc(Br)cc2c1NCCN1CCOCC1 54.4%
CCOC(=O)COc1ccc(CC)cc1C(=O)c1ccn2nc(-c3ccc(F)cc3)cc2n1 8.27%
COc1ccc(-c2noc(CC(=O)N(C)c3cccc(C)c3)n2)cc1 -4.9%
Cc1ccc(NC(=O)CN2C=NS(=O)(=O)c3ccccc32)cc1 -1.64%
Cc1ccc(CCNC(=O)Cn2c(-c3cccs3)cc3ccccc32)cc1 -19.3%
Cc1cccc(CNC(=O)c2cc3cc(S(=O)(=O)N4CCCCC4)ccc3n2C)c1 -3.19%
O=C(Nc1ccc(C(=O)OCc2cc(=O)n3nc(C4CC4)sc3n2)cc1)c1ccccc1 -3.33%
Cc1ccc(Cl)cc1N1CCN(C(=O)CCS(=O)(=O)c2cc(Br)cc3c2N(C(=O)C2CC2)CC3)CC1 -2.86%
COc1ccc(NC(=O)CSc2oc(-c3cccs3)nc2S(=O)(=O)c2ccccc2)c(OC)c1 10.4%
CCc1ccc(S(=O)(=O)c2cn(Cc3ccccc3)c3cc(N4CCCC4)c(F)cc3c2=O)cc1 -17.6%
COc1cc(NC(=O)Cc2c(C(=O)O)c(C)cn2C)cc(OC)c1 0.162%
Cc1ccc2c(c1)N(C(=O)N1CCC(C(=O)NC3CCCCCC3)CC1)CC(C)O2 (stereo unspecified) -8.51%
Cc1cc(C)cc(OCc2ccc(C(=O)Nc3ccccc3F)o2)c1 0.885%
CCc1cccc(NC(=O)CSc2ncccc2C(=O)Oc2ccccc2Cl)c1 -2.71%
CCOc1ccc(NC(=O)CCS(=O)(=O)c2cccc3nonc23)cc1 -1.99%
Cc1ccc(-n2ncc3c(N4CCN(C)CC4)ncnc32)cc1Cl -3.46%
CNC(=O)c1ccc(Nc2nnc(-c3ccc(C)c(S(=O)(=O)N4CCCCC4)c3)c3ccccc23)cc1 -15.6%
CCOC(=O)c1c(NC(=O)c2cc(C)on2)sc(C)c1C -7.39%
Cc1cc(C)c2c(=O)cc(C(=O)Nc3sc4c(c3C(=O)NCc3cccnc3)CCCC4)oc2c1 2.11%
CCOc1ccc(-n2c(SCC(=O)Nc3ccc(F)cc3)nc3c([nH]c4ccccc43)c2=O)cc1 -2.27%
CC(=O)c1cccc(NC(=O)c2ccc(-n3c(C)nnc3C)cc2)c1 12.9%
CCOc1ccccc1CNC(=O)c1ccc2c(c1)sc1nc(-c3cccc(OC)c3)cn12 -6.45%
CC(C)n1c(SCC(=O)Nc2ccc(F)cc2)nc2c(oc3ccccc32)c1=O -23.8%
CC(C)C12CN3CC(C(C)C)(CN(C1)C3c1ccc(OCc3ccccc3)cc1)C2=O (stereo unspecified) 10.2%
CCC(Sc1nc2nccnc2c(=O)n1Cc1ccc(OC)cc1)C(=O)NC1CCCCC1 (stereo unspecified) 1.33%
COc1ccccc1CNC(=O)c1ccc(N2Cc3cccc(OC)c3Oc3ncccc32)s1 -4.33%
COc1ccc(-c2noc(-c3ccc(N4CCCCC4C)c([N+](=O)[O-])c3)n2)cc1OC (stereo unspecified) -5.74%
O=C1OC(C(=O)Nc2ccc(Cl)c(C(F)(F)F)c2)Cc2ccccc21 (stereo unspecified) 2.74%
